Data: ChEMBL document CHEMBL4888484, “Replenishing the malaria drug discovery pipeline: Screening and hit evaluation of the MMV Hit Generation Library 1 (HGL1) against asexual blood stage Plasmodium falciparum ,using a nano luciferase reporter read-out” (2022)
Screen size: about 150,000 compounds; about 540 (0.36%) showed an effect of 50% or more. This is one part of the list.

test system: Plasmodium falciparum; test: Primary screen in NF54 nanoGlo assay, in single point, at 2uM, 72h; a lower Z score goes with more inhibition; assay type: functional, Erythrocyte; details: timepoint 72 hour

First: O=C(C1CC1c1ccccc1)N1CCC(CN2CCCCC2)C1 (centres undefined)
Second: O=C(CC1CCCC1)N1CCC[C@H](CN2CCCC2)CC1
The “% Inhibition” value of the first is lower: -9% for the first, 0% for the second.

First: NC(=O)c1ccccc1OCC#CCNC(=O)NCc1ccccc1
Second: COCCNc1c(-c2ccccc2)nc2sc(C(=O)NCc3cccnc3)c(C)n12
The “% Inhibition” value of the first is higher: -14% for the first, -31% for the second.

First: CCC(=O)N1CCC(NC(C)c2nc(C(C)C)no2)C(CC)C1 (centres undefined)
Second: CCOC(=O)N1CCC(NC(C)C(O)c2c(F)cccc2F)CC1 (centres undefined)
The “% Inhibition” value of the first is lower: -15% for the first, 6% for the second.

Compared with `CC(O)C1CCN(C2CCN(c3ccccc3)C2=O)C1` (centres undefined), `O=C(NC1CC1)[C@@H]1CCCN1c1noc(-c2ccccc2)n1` is higher in “% Inhibition” value: -2% for the first, 4% for the second.

First: COc1c(CNC(=O)N[C@H]2CCN(CC(F)(F)F)C2)c(C)nn1C
Second: CC1CC(NC(=O)NCc2ccc(C3CC3)cc2)CC(C)O1 (centres undefined)
The “% Inhibition” value of the first is lower: -17% for the first, -6% for the second.

Compared with `CC(C)C(=O)NCCn1cc([C@H](C)c2ccccc2)nn1`, `Cc1cc(S(=O)(=O)Nc2ncn(-c3ccccc3)n2)c(C)o1` is lower in “% Inhibition” value: -2% for the first, -6% for the second.

First: CN1C[C@H]2CN(C(=O)c3csc4c3CCCC4)C[C@@]2(C(=O)O)C1
Second: CN1CCCC1C1CCCN1C(=O)c1nccc2ccccc12 (centres undefined)
The “% Inhibition” value of the first is lower: -5% for the first, 6% for the second.

First: Cc1cc(C(=O)N2CCC[C@H](c3[nH]ncc3-c3ccc(F)cc3)C2)nc(C)n1
Second: Fc1ccc(-c2cnc3n2C[C@H](CNCc2cccnc2)OC3)cc1
The “% Inhibition” value of the first is higher: -5% for the first, -15% for the second.

First: CN(CCn1cncn1)Cc1ccc(F)c(C#N)c1
Second: O=C(O)CN(Cc1ccco1)c1cccc(Cl)c1
The “% Inhibition” value of the first is lower: -2% for the first, 4% for the second.

Going from `Cc1ccc(S(=O)(=O)Nc2ccc(N3CCOCC3)nc2)cc1` to `O=C(Nc1ccc(C(=O)N2CCC2)cc1)c1ccccc1`, the “% Inhibition” value falls from 2% to -4%.

First: Cc1nnc2sc(-c3ccc(NC(=O)c4ccc(-c5ccc(Cl)c(Cl)c5)o4)cc3)nn12
Second: O=C(Nc1ccc(-n2cnnn2)cc1)c1ccc(OCc2nc(C3CC3)cs2)cc1
The “% Inhibition” value of the first is higher: -4% for the first, -12% for the second.

Going from `CCCCN(CC(N)=O)C(=O)[C@@H]1CCOc2ccc(Cl)cc21` to `O=C(CCC1CCN(C(=O)[C@@H]2CC=CCC2)CC1)Nc1ccc2c(c1)OCCO2`, the “% Inhibition” value falls from -3% to -7%.

First: Cc1n[nH]c([C@H](C)Oc2cccc(Cl)c2)n1
Second: Cc1c(-c2cc(-c3cnn(C)c3C)n(-c3ccccc3)n2)cnn1C
The “% Inhibition” value of the first is lower: 4% for the first, 29% for the second.

First: O=C(NCc1ccccc1)c1coc(CN(Cc2cccc(Oc3ccccc3)c2)Cc2ccc3c(c2)OCO3)n1
Second: c1ccc(-c2noc(CCCc3c[nH]c4ccccc34)n2)cc1
The “% Inhibition” value of the first is lower: -19% for the first, -11% for the second.

First: C[C@H]1CN(C(=O)Cc2ccn[nH]2)C(C)(C)CO1
Second: CC(C)(C)C1=CCN(CCNC(=O)[C@H]2CCc3cn[nH]c3C2)CC1
The “% Inhibition” value of the first is higher: -2% for the first, -7% for the second.

Going from `COc1ccc(CN2C(=O)N(c3cccc(C(F)(F)F)c3)C(=O)[C@@H]3[C@H]2CCN3C(=O)CCC(=O)O)cc1` to `Cn1c(N2CCC[C@H](C(=O)NCC3CCN(Cc4cccc(Cl)c4)CC3)C2)cc(=O)n(C)c1=O`, the “% Inhibition” value falls from 34% to -11%.

Going from `Nc1ncnc2c1ncn2CCC(=O)N1CCC[C@@]2(CCOC2)C1` to `Cc1[nH]c(=O)c(C#N)c(C)c1CCC(=O)N1CCN(Cc2csc(-c3ccco3)n2)CC1`, the “% Inhibition” value rises from -12% to -3%.

Going from `CN(C)S(=O)(=O)c1ccc(F)c(NC(=O)NC2CN(C(=O)OC(C)(C)C)C2)c1` to `COCc1cc(C(=O)NCC2(c3c(F)cccc3F)CCC2)no1`, the “% Inhibition” value rises from -2% to 13%.

Compared with `O=C(c1cnsn1)N1CCCC[C@@H]1Cc1ccc(O)cc1`, `COC1CCCC(C(=O)N2CCN(Cc3c(-c4ccc(Cl)cc4)nc4ccc(-c5ccc(Cl)cc5C)cn34)CC2)C1` (centres undefined) is higher in “% Inhibition” value: -5% for the first, 6% for the second.

Going from `CCc1ncc(CN(C)CCCC2CCCC2)cn1` to `COc1ccnc(N2CCN(c3cc(C)nc(C4CC4)n3)CC2)c1`, the “% Inhibition” value falls from -2% to -10%.

Going from `Cc1cc2c(NC3CCC(Oc4cnccn4)CC3)nccn2n1` (centres undefined) to `Cc1sc(NC(=O)CN2C[C@@H](O)C[C@H]2CO)c(C)c1C`, the “% Inhibition” value falls from 6% to -3%.

Compared with `O=C(C1CC1c1ccccc1)N1CCC(CN2CCCCC2)C1` (centres undefined), `O=C(CC1CCCC1)N1CCC[C@H](CN2CCCC2)CC1` is lower in Z score: 1.05 for the first, 0.04 for the second.

Going from `NC(=O)c1ccccc1OCC#CCNC(=O)NCc1ccccc1` to `COCCNc1c(-c2ccccc2)nc2sc(C(=O)NCc3cccnc3)c(C)n12`, the Z score rises from 1.74 to 3.13.

First: CCC(=O)N1CCC(NC(C)c2nc(C(C)C)no2)C(CC)C1 (centres undefined)
Second: CCOC(=O)N1CCC(NC(C)C(O)c2c(F)cccc2F)CC1 (centres undefined)
The Z score of the first is higher: 1.23 for the first, -0.65 for the second.

First: CC(O)C1CCN(C2CCN(c3ccccc3)C2=O)C1 (centres undefined)
Second: O=C(NC1CC1)[C@@H]1CCCN1c1noc(-c2ccccc2)n1
The Z score of the first is higher: 0.33 for the first, -0.52 for the second.

Going from `COc1c(CNC(=O)N[C@H]2CCN(CC(F)(F)F)C2)c(C)nn1C` to `CC1CC(NC(=O)NCc2ccc(C3CC3)cc2)CC(C)O1` (centres undefined), the Z score falls from 1.94 to 0.51.

Going from `CC(C)C(=O)NCCn1cc([C@H](C)c2ccccc2)nn1` to `Cc1cc(S(=O)(=O)Nc2ncn(-c3ccccc3)n2)c(C)o1`, the Z score rises from 0.38 to 0.64.

Going from `CN1C[C@H]2CN(C(=O)c3csc4c3CCCC4)C[C@@]2(C(=O)O)C1` to `CN1CCCC1C1CCCN1C(=O)c1nccc2ccccc12` (centres undefined), the Z score falls from 0.76 to -0.81.

First: Cc1cc(C(=O)N2CCC[C@H](c3[nH]ncc3-c3ccc(F)cc3)C2)nc(C)n1
Second: Fc1ccc(-c2cnc3n2C[C@H](CNCc2cccnc2)OC3)cc1
The Z score of the first is lower: 0.89 for the first, 2.32 for the second.

First: CN(CCn1cncn1)Cc1ccc(F)c(C#N)c1
Second: O=C(O)CN(Cc1ccco1)c1cccc(Cl)c1
The Z score of the first is higher: 0.29 for the first, -0.54 for the second.

Compared with `Cc1ccc(S(=O)(=O)Nc2ccc(N3CCOCC3)nc2)cc1`, `O=C(Nc1ccc(C(=O)N2CCC2)cc1)c1ccccc1` is higher in Z score: -0.27 for the first, 0.43 for the second.

Going from `Cc1nnc2sc(-c3ccc(NC(=O)c4ccc(-c5ccc(Cl)c(Cl)c5)o4)cc3)nn12` to `O=C(Nc1ccc(-n2cnnn2)cc1)c1ccc(OCc2nc(C3CC3)cs2)cc1`, the Z score rises from 0.43 to 2.22.

First: CCCCN(CC(N)=O)C(=O)[C@@H]1CCOc2ccc(Cl)cc21
Second: O=C(CCC1CCN(C(=O)[C@@H]2CC=CCC2)CC1)Nc1ccc2c(c1)OCCO2
The Z score of the first is lower: 0.54 for the first, 0.89 for the second.

Compared with `Cc1n[nH]c([C@H](C)Oc2cccc(Cl)c2)n1`, `Cc1c(-c2cc(-c3cnn(C)c3C)n(-c3ccccc3)n2)cnn1C` is lower in Z score: -0.64 for the first, -3.3 for the second.

Compared with `O=C(NCc1ccccc1)c1coc(CN(Cc2cccc(Oc3ccccc3)c2)Cc2ccc3c(c2)OCO3)n1`, `c1ccc(-c2noc(CCCc3c[nH]c4ccccc34)n2)cc1` is lower in Z score: 1.86 for the first, 1.42 for the second.

First: C[C@H]1CN(C(=O)Cc2ccn[nH]2)C(C)(C)CO1
Second: CC(C)(C)C1=CCN(CCNC(=O)[C@H]2CCc3cn[nH]c3C2)CC1
The Z score of the first is lower: 0.3 for the first, 1.35 for the second.

Compared with `COc1ccc(CN2C(=O)N(c3cccc(C(F)(F)F)c3)C(=O)[C@@H]3[C@H]2CCN3C(=O)CCC(=O)O)cc1`, `Cn1c(N2CCC[C@H](C(=O)NCC3CCN(Cc4cccc(Cl)c4)CC3)C2)cc(=O)n(C)c1=O` is higher in Z score: -3.86 for the first, 1.84 for the second.

First: Nc1ncnc2c1ncn2CCC(=O)N1CCC[C@@]2(CCOC2)C1
Second: Cc1[nH]c(=O)c(C#N)c(C)c1CCC(=O)N1CCN(Cc2csc(-c3ccco3)n2)CC1
The Z score of the first is higher: 1.66 for the first, 0.48 for the second.

First: CN(C)S(=O)(=O)c1ccc(F)c(NC(=O)NC2CN(C(=O)OC(C)(C)C)C2)c1
Second: COCc1cc(C(=O)NCC2(c3c(F)cccc3F)CCC2)no1
The Z score of the first is higher: 0.3 for the first, -1.28 for the second.

Compared with `O=C(c1cnsn1)N1CCCC[C@@H]1Cc1ccc(O)cc1`, `COC1CCCC(C(=O)N2CCN(Cc3c(-c4ccc(Cl)cc4)nc4ccc(-c5ccc(Cl)cc5C)cn34)CC2)C1` (centres undefined) is lower in Z score: 0.97 for the first, -0.5 for the second.

Going from `CCc1ncc(CN(C)CCCC2CCCC2)cn1` to `COc1ccnc(N2CCN(c3cc(C)nc(C4CC4)n3)CC2)c1`, the Z score rises from 0.26 to 0.92.

Compared with `Cc1cc2c(NC3CCC(Oc4cnccn4)CC3)nccn2n1` (centres undefined), `Cc1sc(NC(=O)CN2C[C@@H](O)C[C@H]2CO)c(C)c1C` is higher in Z score: -0.58 for the first, 0.3 for the second.
